Data from the RNAGym collection of RNA variant scans (doi:10.1093/nar/gkz1192).
Read counts are not given, so values of variants with three or more changes are uncertain.

B1: CPEB3 Ribozyme (parent)
chain: UAACAGGGGGCCACAGCAGAAGCGUUCACGUCGCAGCCCCUGUCAGAUUCUGGUGAAUCUGCGAAUUCUGCUGUAUAUCUC

Variants of: B1
Test: self-cleavage, relative activity (ratio to wild type); higher = more cleavage; in vitro, sequencing
Method in brief: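 For each CPEB3 ribozyme variant, relative activity is its cleaved/total read fraction divided by the unmutated ribozyme's. Barcoded error-prone PCR libraries were transcribed by T7 RNA polymerase (5 hours, 37°C) and held in DNase I for 15 min before an EDTA stop, with cleavage occurring throughout. Template-switching reverse transcription and Illumina sequencing were used to read the RNAs. A 5-read minimum applied, and results are the mean of three batches.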

Variant | self-cleavage
UAACAGGGGGCCACUGCAGAAGCGUUCACGUCGCAGCCCCAGUCAGAUUCUGGUGAAUCCGCGUAUUCUGCCGUAUACCUC | 0.16
UAACAGGGGGCCACUGCAGAAGCGUUCACGUCGCAGCCCCAGUCAGAUUCUGGUGAAUCUGCGAAUCUUGCCGUAUAUCCC | 0.06
UAACAGGGGGCCACUGCAGAAGCGUUCACGUCGCAGCCCCAGUCAGAUUCUGGUGAAUCUGCGAAUUCUGCGGCAUAUCUC | 0.05
UAACAGGGGGCCACUGCAGAAGCGUUCACGUCGCAGCCCCAGUCAGAUUCUGGUGAAUCUGCGAAUUCUGCUGCAUAUCUC | 0.24
UAACAGGGGGCCACUGCAGAAGCGUUCACGUCGCAGCCCCAGUCAGAUUCUGGUGAAUCUGCGAAUUCUGCUGUAUAUCAC | 0.13
UAACAGGGGGCCACUGCAGAAGCGUUCACGUCGCAGCCCCAGUCAGAUUCUGGUGAAUCUGCGAAUUCUGCUGUAUAUCCC | 0.19
UAACAGGGGGCCACUGCAGAAGCGUUCACGUCGCAGCCCCCGUCGGAUUCUGGUGAGUCUGCGGAUUCUGCUGUAUAUCUC | 0.3
UAACAGGGGGCCACUGCAGAAGCGUUCACGUCGCAGCCCCCGUCGCAUUCUGGUGAAUCUGCGGAUUCUGCUGUAUAUCUC | 0.22
UAACAGGGGGCCACUGCAGAAGCGUUCACGUCGCAGCCCCCGUCAGAUUCUGGUGGAUCUGCGAAUUCUGCUGUAUAUCUC | 0.79
UAACAGGGGGCCACUGCAGAAGCGUUCACGUCGCAGCCCCCGUCAGAUUCUGGUGAGUCUGCGAAUUCUGCGGCAUAUCUC | 0.51
UAACAGGGGGCCACUGCAGAAGCGUUCACGUCGCAGCCCCCGUCAGAUUCUGGUGAAUCUGCUAAUUCUGCUGUAUAUCUC | 1.14
UAACAGGGGGCCACUGCAGAAGCGUUCACGUCGCAGCCCCCGCCAGAUUCUGGUGAAUCUGCGAAUUCUGCUGUGUAACUC | 0.25
UAACAGGGGGCCACUGCAGAAGCGUUCACGUCGCAGCCCCCGCCAGAUUCUGGUGAAUCUGCGAAUUCUACUGUAUAUCUC | 0.4
UAACAGGGGGCCACUGCAGAAGCGUUCACGUCGCAGCCCCCGUCAGAUCCUGGUGUAUCUGCGAAUUCUGCUGUAUAUCUC | 0.17
UAACAGGGGGCCACUGCAGAAGCGUUCACGUCGCAGCCCCCGUCAGAUCCUGGUGAAUCUGCGAGUUCUGCUGUAUAUCUC | 0.11
UAACAGGGGGCCACUGCAGAAGCGUUCACGUCGCAGCCCCCGUCAGAUUCUGGAGAAUCUGCGAAUUCUGCUGUAUAUCUC | 1.01
UAACAGGGGGCCACUGCAGAAGCGUUCACGUCGCAGCCCCCGUCAGAUUCUGGUGAAUCUGCGAAUACUGCCGCAUAUCUC | 0.25
UAACAGGGGGCCACUGCAGAAGCGUUCACGUCGCAGCCCCCGUCAGAUUCUGGUGAAUCUGCGAAUCCAGCUGUAUAUCUC | 0.2
UAACAGGGGGCCACUGCAGAAGCGUUCACGUCGCAGCCCCCGUCAGAUUCUGGUGAAUCUGCGAAUCCUGCUGUAUACCUC | 0.15
UAACAGGGGGCCACUGCAGAAGCGUUCACGUCGCAGCCCCCGUCAGAUUCUGGUGAAUCUGCGAAUUCCGCUGUAUGUCUC | 0.19
UAACAGGGGGCCACUGCAGAAGCGUUCACGUCGCAGCCCCCGUCAGAUUCUGGUGAAUCUGCGAAUUCUGCUGUAUAUCAC | 0.89
UAACAGGGGGCCACUGCAGAAGCGUUCACGUCGCAGCCCCUGACAGAUCCUGGUGAAUCUGCGAAUUCAGCUGUAUAUCUC | 0.18
UAACAGGGGGCCACUGCAGAAGCGUUCACGUCGCAGCCCCUGACAGAUUCUGGAGAAUCUGCGAAUUCUGCUGUAUUUCUC | 0.96

Variant | self-cleavage
UAACAGGGGGCCACUGCAGAAGCGUUCACGUCGCAGCCCCUGACAGAUUCUGGUGAAUCAGCGAAUUCUACUGUAUAUCUC | 0.23
UAACAGGGGGCCACUGCAGAAGCGUUCACGUCGCAGCCCCUGCCAGGUUCUGGUGAACCUGCGAAUCCCGUUGUAUAUCUC | 0.39
UAACAGGGGGCCACUGCAGAAGCGUUCACGUCGCAGCCCCUGCCAGAUUUUGGUGAAUCUGCGAAUUCUGCUGUACAUCUC | 0.14
UAACAGGGGGCCACUGCAGAAGCGUUCACGUCGCAGCCCCUGCCAGAUUCUGGUGAAUCUGUGAAUUCUGCUGUAUAUCUC | 0.24
UAACAGGGGGCCACUGCAGAAGCGUUCACGUCGCAGCCCCUGCCAGAUUCUGACGAAUCUGCGAAUUCCGCUGUAUAUCUC | 0.17
UAACAGGGGGCCACUGCAGAAGCGUUCACGUCGCAGCCCCUGCCAGAUUCUGGUGAAUCUGCUAAUUCUGCUGUAUAUCUC | 0.65
UAACAGGGGGCCACUGCAGAAGCGUUCACGUCGCAGCCCCUGCCAGAUCCUGGCGAAUCUGCGAACUCUGCUGUAUAUCCC | 0.11
UAACAGGGGGCCACUGCAGAAGCGUUCACGUCGCAGCCCCUGCCAGAUUCUGGUGAAUCUGCGAACUCUGCUGUAUACCUC | 0.05
UAACAGGGGGCCACUGCAGAAGCGUUCACGUCGCAGCCCCUGCCAGAUUCUGGUGAAUCUGCGAAUUCUGCAGUAUAUCUC | 0.51
UAACAGGGGGCCACUGCAGAAGCGUUCACGUCGCAGCCCCUGCCAGAUUCUGGUGAAUCUGCGAAUUCUGCCGUAUAUCUC | 0.73
UAACAGGGGGCCACUGCAGAAGCGUUCACGUCGCAGCCCCUGUCAGAAUCUGGUGAAUCUGCGAAUUCUGUUGUAUAUCAC | 0.05
UAACAGGGGGCCACUGCAGAAGCGUUCACGUCGCAGCCCCUGUCAGACUCUGGUGGAUCUGCGAAUACUGCCGUAUACCUC | 0.03
UAACAGGGGGCCACUGCAGAAGCGUUCACGUCGCAGCCCCUGUCAGACUCUGGUGAAUCUGCGAGUUCUGCUGUAUAUCUC | 0.17
UAACAGGGGGCCACUGCAGAAGCGUUCACGUCGCAGCCCCUGUCAGACUCUGGAGAAUCUGCGAAUUAUGCUGUAUAUCUC | 0.18
UAACAGGGGGCCACUGCAGAAGCGUUCACGUCGCAGCCCCUGUCAGACUCUGGAGAAUCUGCGAAUUAUGCUGUAUAUCCC | 0.13
UAACAGGGGGCCACUGCAGAAGCGUUCACGUCGCAGCCCCUGUCAGACUCUGGUGAAUCCGCGAAUUCUGCUGUAUAUCUC | 0.11
UAACAGGGGGCCACUGCAGAAGCGUUCACGUCGCAGCCCCUGUCAGAUACAGGCGAAUCUGCGAAUUCUGCUGCAUAUCUC | 0.46
UAACAGGGGGCCACUGCAGAAGCGUUCACGUCGCAGCCCCUGUCAGAUCCCUGUGAAUCUGCGAAUGCUGCUGUACAUCCC | 0.1
UAACAGGGGGCCACUGCAGAAGCGUUCACGUCGCAGCCCCUGUCAGAUCCUGGUGAAUCUGCGAAUACUGCUGUAUAUCUC | 0.1
UAACAGGGGGCCACUGCAGAAGCGUUCACGUCGCAGCCCCUGUCAGAUUCAGGUGAUUCUGCGAAUUCUGCUGUAUAUCUC | 0.19
UAACAGGGGGCCACUGCAGAAGCGUUCACGUCGCAGCCCCUGUCAGAUUCAGGUGAAUCUGCUAAUUCUGCCGUGUAUCCC | 0.86
UAACAGGGGGCCACUGCAGAAGCGUUCACGUCGCAGCCCCUGUCAGAUUCAGGUGAAUCAGCGAAUUCUGCUGUAUAUCUC | 0.39
UAACAGGGGGCCACUGCAGAAGCGUUCACGUCGCAGCCCCUGUCAGAUUCAGGUGAAUCUGCGAAUUCUGCUGUAUAUCCC | 0.75

Variant | self-cleavage
UAACAGGGGGCCACUGCAGAAGCGUUCACGUCGCAGCCCCUGUCAGAUUCCGGUGGAUCUGCGAAUUCUGAUGUAUAUCUC | 0.15
UAACAGGGGGCCACUGCAGAAGCGUUCACGUCGCAGCCCCUGUCAGAUUCCGGUGAAUCUGCGAUUUCUGCUGUAUAUCUC | 0.21
UAACAGGGGGCCACUGCAGAAGCGUUCACGUCGCAGCCCCUGUCAGAUUCCGGAGAAUCUGCGAAUUCUGCUGUAUAUCUC | 0.68
UAACAGGGGGCCACUGCAGAAGCGUUCACGUCGCAGCCCCUGUCAGAUUCCGGUGAACCUGCGAGUUCUGCUGUAUAUCUC | 0.27
UAACAGGGGGCCACUGCAGAAGCGUUCACGUCGCAGCCCCUGUCAGAUUCCGGUGAAUCAGCGAGUUCUGCUGUAUAUCUC | 0.12
UAACAGGGGGCCACUGCAGAAGCGUUCACGUCGCAGCCCCUGUCAGAUUCCGGUGAAUCCGCGAAUCCUGCUGUAAAUCUC | 0.75
UAACAGGGGGCCACUGCAGAAGCGUUCACGUCGCAGCCCCUGUCAGAUUCCGGUGAAUCUGCGAAUACUGCUGUAUAUCUC | 0.33
UAACAGGGGGCCACUGCAGAAGCGUUCACGUCGCAGCCCCUGUCAGAUUCCGGUGAAUCUGCGAAUUCUGCUGUAUACCUC | 0.58
UAACAGGGGGCCACUGCAGAAGCGUUCACGUCGCAGCCCCUGUCAGAUUCGGGUGAAUCUGCGGAUUAUGCAGUAUAUCUC | 0.17
UAACAGGGGGCCACUGCAGAAGCGUUCACGUCGCAGCCCCUGUCAGAUUCUGGAGAGUCUGCGAAUACUGCUGUAUAUCUC | 0.18
UAACAGGGGGCCACUGCAGAAGCGUUCACGUCGCAGCCCCUGUCAGAUUCUGGAGAAUCUGCGAAUUCUGCUGUAUUUCCC | 1.19
UAACAGGGGGCCACUGCAGAAGCGUUCACGUCGCAGCCCCUGUCAGAUUCUGGAGAAUCUGUGAACUCUGCAGUAUAUCUC | 0.1
UAACAGGGGGCCACUGCAGAAGCGUUCACGUCGCAGCCCCUGUCAGAUUCUGGAGAAUCUGCGAAUUCUGCUGUAUACCUC | 0.87
UAACAGGGGGCCACUGCAGAAGCGUUCACGUCGCAGCCCCUGUCAGAUUCUGGCGGAUCUGCGAAUUCUGCUGUAUAUCUC | 0.42
UAACAGGGGGCCACUGCAGAAGCGUUCACGUCGCAGCCCCUGUCAGAUUCUGGCGAGUCUGCGAAUUCUGCUGUAUAUCUC | 0.2
UAACAGGGGGCCACUGCAGAAGCGUUCACGUCGCAGCCCCUGUCAGAUUCUGGCGAACCUGCGAAUUCUGCUGUAUAUCUC | 0.25
UAACAGGGGGCCACUGCAGAAGCGUUCACGUCGCAGCCCCUGUCAGAUUCUGGCGAAUCUGCGAACUCUGCUGUAUAUCUC | 0.12
UAACAGGGGGCCACUGCAGAAGCGUUCACGUCGCAGCCCCUGUCAGAUUCUGGCGAAUCUGCGAAUUCUGCCGCAUAUCUC | 1.09
UAACAGGGGGCCACUGCAGAAGCGUUCACGUCGCAGCCCCUGUCAGAUUCUGGCGAAUCUGCGAAUUCUGCUGUAUACCUC | 0.27
UAACAGGGGGCCACUGCAGAAGCGUUCACGUCGCAGCCCCUGUCAGAUUCUGGGGAACCUGCGAAUUCUGCUGCAUAUCUC | 0.56
UAACAGGGGGCCACUGCAGAAGCGUUCACGUCGCAGCCCCUGUCAGAUUCUGGUGAAACUGCGAACUCUGCUGUAUAUCUC | 0.12
UAACAGGGGGCCACUGCAGAAGCGUUCACGUCGCAGCCCCUGUCAGAUUCUGGUGAACCUGCGUAUUCUGCCGUAUACCUC | 0
